Results taken from PubChem BioAssay AID686979 (National Center for Advancing Translational Sciences (NCATS), 2013).
About 50,000 (12%) of roughly 420,000 compounds were called active. This list was built around the results that the source calls inconclusive (neither active nor inactive); the mix of calls is not that of the screen. Calls follow the shape of the dose curve; as a rule, active = well fitted inhibition curve with a large enough effect; inconclusive = small, poorly fitted or top-dose-only effect; inactive = flat fitted curve, though single readings scatter. No potency is given beside an inconclusive call; the fits are too rough.

Assay: qHTS for Inhibitors of human tyrosyl-DNA phosphodiesterase 1 (TDP1): qHTS in cells in presence of CPT; also: nearly all actives have a fitted effect of over 55% in size
Details: chicken DT40 Tdp1-/-;hTDP1 cells + 20 nM CPT, ATP luminescence, 48 h; activity change, negative = growth inhibition: at 46.2 µM (top of the series)
Outline: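 Chicken DT40 Tdp1-/- cells complemented with human TDP1, 400 cells/well, exposed to compounds plus 20 nM camptothecin for at least 48 h at 37 C; viability read as ATP content by CellTiter-Glo luminescence.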
% is scaled to controls: 0 for no effect and ±100 for the full control effect; potency is read from the fitted curve at half-maximal effect; tags tell the direction and shape of the fitted curve.

| SMILES | Potency | activity change, negative = growth inhibition |
| --- | --- | --- |
| CC1CN(C(C)C)C(=S)NC1=O (configuration not stated) | inactive | – |
| CC(=O)Oc1c(Cl)cc(N(C(C)=O)S(=O)(=O)c2ccccc2)c2ccccc12 | active: 10.3 µM | – |
| O=C(N/N=C/c1ccncc1)c1cc(-c2ccc(Br)s2)[nH]n1 | inactive | – |
| Cc1cc(C)c2c(CN3CCN(c4ccccc4F)CC3)cc(=O)oc2c1 | active: 23.1 µM | – |
| O=C(NNc1ccccc1C(F)(F)F)c1sccc1Br | inactive | – |
| CC(C)CCN(Cc1ccco1)C(=O)c1cc2c(Cl)nc3ccccc3c2s1 | inconclusive [inhibitor, partial curve] | – |
| O=C(C[n+]1cccc2cc(Cl)ccc21)c1ccc(I)cc1 | active: 11.2 µM | – |
| CCc1nnc(NS(=O)(=O)c2ccc(N/C=C\C(=O)c3ccc4ccccc4c3)cc2)s1 | inconclusive [inhibitor, single point] | – |
| COc1ccc(/C(C)=N/NC(=O)c2cc(C)[nH]n2)c(OC)c1 | inactive | – |
| Nc1c(Br)cc(/C=C2\C=Cc3ccccc32)cc1Br | inconclusive [inhibitor, single point] | – |
| CN(Cc1ccccc1)C(=O)c1ccc(NC(=O)Cc2cccc(NC(=O)C3CCCN(C(=O)C4CCCCC4)C3)c2)cc1 (configuration not stated) | inconclusive [inhibitor, single point] | – |
| CCC(C)(C(=O)NC1CCCCC1)N(Cc1cccs1)C(=O)Cc1cccs1 (configuration not stated) | inconclusive [inhibitor, partial curve] | – |
| CC(C)COCC(O)CCC(=O)NNC(=S)Nc1ccccc1 (configuration not stated) | inconclusive [inhibitor, single point] | – |
| COc1cc(OC)c(CN2CCOc3ccc(CN4CCC(O)CC4)cc3C2)c(OC)c1 | inconclusive [inhibitor, single point] | – |
| Cc1ccc(S(=O)(=O)N2CC3(C)CN(S(=O)(=O)c4ccc(C)cc4)CC(C)(C2)C3=O)cc1 | inconclusive [inhibitor, partial curve] | – |
| CN(C)c1ccc(/C=C/c2ccnc3c(Cl)ccc(Cl)c23)cc1 | active: 11.2 µM | – |
| CCCCn1nnc(NC(=O)C(c2ccccc2)c2ccccc2)n1 | inactive | – |
| COc1cc(/C=N/NC(=S)NCc2ccco2)cc(OC)c1OC | active: 16.4 µM | – |
| CCCCNC(=O)N(O)C1N(/N=C/c2cccs2)C(=S)SC1(C)C (configuration not stated) | – | inconclusive: -38.6% [inhibitor] |
| OCc1c(OCc2cccc(F)c2)ccc2ccccc12 | inconclusive [inhibitor, single point] | – |
| Cc1cc2cc(C=C(C#N)C#N)c(Cl)nc2cc1C | active: 7.31 µM | – |
| C=CCn1c(O)c(N=NC(=O)CNC(=O)c2cccs2)c2ccccc21 | inconclusive [inhibitor, single point] | – |
| Cc1c(C(=O)Nc2ccc3c(c2)OCO3)oc2ccccc12 | inconclusive [inhibitor, single point] | – |
| CC(C)C[C@@H](CO)N1CCN(Cc2ccc([N+](=O)[O-])cc2)CCC1=O | inconclusive [inhibitor, single point] | – |

| SMILES | Potency | activity change, negative = growth inhibition |
| --- | --- | --- |
| CCOc1cccc(NC(=O)CSc2nc(C)c3c(c2C#N)CCCC3)c1 | inactive | – |
| O=C(Nc1ccc(Br)cn1)c1cccc(C(=O)Nc2ccc(Br)cn2)c1 | inconclusive [inhibitor, single point] | – |
| CC(C(C(=O)N1CCCCC1)N1CCCCC1)N1CCCCC1 (configuration not stated) | inactive | – |
| Cc1ccc(-c2cc(C(=O)Nc3ccccc3C(N)=O)c3ccccc3n2)o1 | active: 14.6 µM | – |
| CCOc1ccc(C2Nc3ccccc3-c3nnc(SCc4ccccc4)nc3O2)cc1OC (configuration not stated) | active: 18.4 µM | – |
| CCNS(=O)(=O)c1ccc(NC(=O)c2cc(C(F)(F)F)nn2C)cc1 | inconclusive [inhibitor, single point] | – |
| Cc1ccc(CN(c2ccc(C(=O)NCC3CCCO3)cc2)S(C)(=O)=O)cc1 (configuration not stated) | inactive | – |
| Cn1nc(-c2ccc(Cl)cc2)c2cc(C(=O)NCCN3CCOCC3)sc21 | inactive | – |
| COc1ccc([N+](=O)[O-])cc1NC(=S)NC(NC(=O)Cc1ccc(OC)c(OC)c1)C(Cl)(Cl)Cl (configuration not stated) | inconclusive [inhibitor, single point] | – |
| COc1ccc(CNC(=O)c2ccccc2NC(=O)C2=CSCCO2)c(OC)c1 | inconclusive [inhibitor, single point] | – |
| CCOc1ccc(CC(=O)N2CCN=C2SCc2ccc([N+](=O)[O-])cc2)cc1 | inconclusive [inhibitor, single point] | – |
| Cc1ccc(-c2n[nH]c(Cc3ccccc3)n2)cc1 | inconclusive [inhibitor, single point] | – |
| CCOC(=O)C(CC)/C(C)=N\NC(=O)c1ccccc1O (configuration not stated) | active: 16.4 µM | – |
| COCCOc1ccc(C(F)(F)F)cc1N | inactive | – |
| Cc1cc2oc3c(c(=O)c2cc1C)C(c1ccc(C(C)C)cc1)N(CCCN1CCOCC1)C3=O (configuration not stated) | active: 20.6 µM | – |
| Cc1[nH][nH]c(=O)c1N=Nc1ccc(Br)c(Cl)c1 | inconclusive [inhibitor, partial curve] | – |
| CCCOc1ccc(-c2nn(-c3ccccc3)cc2C2NC(=O)NC(C)=C2C(=O)OC)cc1C (configuration not stated) | inconclusive [inhibitor, single point] | – |
| C[C@@H]1CN([C@H](C)CO)C(=O)c2cc(NS(=O)(=O)c3cccs3)ccc2O[C@H]1CN(C)Cc1ccccc1 | inconclusive [inhibitor, single point] | – |
| Cc1ccc2c(c1)CCCN2C(=O)Nc1ccc2c(c1)OCO2 | inconclusive [inhibitor, single point] | – |
| Cc1ccc(CN2C(=O)c3ccccc3C2c2nnnn2-c2c(C)cccc2C)cc1 (configuration not stated) | inconclusive [inhibitor, single point] | – |
| CCOc1ccc(NC(=O)Nc2ccc3nccnc3c2)cc1 | inconclusive [inhibitor, single point] | – |
| Cc1cc(C)cc(NC(=O)C2CCN(C(=O)[C@@H]3Cc4ccccc4CN3)CC2)c1 | inconclusive [inhibitor, single point] | – |
| COc1ccc(C(=O)NC(=S)Nc2ccc([N+](=O)[O-])cc2C)cc1OC | – | inconclusive: -39.3% [inhibitor] |
| COCCCNC(=O)C[C@H]1C[C@H](C(=O)N2CCOCC2)[C@@]2(CCC3CCCC3)c3[nH]c4cc(-c5ccco5)ccc4c3CCN2C1=O | inconclusive [inhibitor, single point] | – |

| SMILES | Potency | activity change, negative = growth inhibition |
| --- | --- | --- |
| CCC(=O)N1CCc2cc(Br)cc(S(=O)(=O)CCC(=O)NCCc3ccc(Cl)cc3)c21 | inactive | – |
| Cc1ccccc1CNC(=O)C1CCCN(S(=O)(=O)N(C)c2ccc(F)cc2)C1 (configuration not stated) | active: 23.1 µM | – |
| Cc1cc([N+](=O)[O-])nn1CC(=O)N/N=C/c1ccccc1F | inactive | – |
| CCOC(=O)C1CCN(C(=O)COC(=O)Cc2ccc(Cl)cc2)CC1 | inactive | – |
| CCOc1ccccc1CN1CCN(Cc2c[nH]c3ccccc23)CC1CCO (configuration not stated) | active: 9.2 µM | – |
| CCc1cccc(NC(=O)c2ccc(CN3C(=O)C(C)=C(c4ccc(OC)cc4)S3(=O)=O)cc2)c1 | inconclusive [inhibitor, single point] | – |
| Cc1ccc(S(=O)(=O)Nc2cc(=O)[nH]c(SCc3ccc(Cl)cc3)n2)cc1 | inconclusive [inhibitor, single point] | – |
| Cc1ccccc1CNC(=O)Cn1ncn2nc(-c3cccs3)cc2c1=O | inactive | – |
| CCOc1ccc(-c2nc(CSCC(=O)N3CCN(c4cccc(OC)c4)CC3)c(C)o2)cc1 | active: 23.1 µM | – |
| CCc1ccc2oc(-c3cccc(NC(=O)c4ccc(N5CCC(C)CC5)c([N+](=O)[O-])c4)c3)nc2c1 | inconclusive [inhibitor, single point] | – |
| O=C(O)c1ccccc1-c1csc(-c2ccccc2)n1 | inactive | – |
| COc1cc(/C=C2/C(=O)ON=C2C)cc(Cl)c1O | active: 18.4 µM | – |
| CCCn1c(C(C)Nc2nc(-c3ccc(C)cc3)cs2)nc2cc(Cl)c(Cl)cc21 (configuration not stated) | inconclusive [inhibitor, partial curve] | – |
| CC(C)(O)C#Cc1ccc(CN2CCc3nnc(CNC(=O)c4cccc(F)c4)n3CC2)cc1 | inactive | – |
| COc1cccc(-c2nc(CS(=O)(=O)CC(=O)NC3CCC(C)CC3)c(C)o2)c1 (configuration not stated) | inconclusive [inhibitor, single point] | – |
| CCOC(=O)N(NC(=O)C(O)(CC(C)C)CC(C)C)c1ccccc1 | inconclusive [inhibitor, single point] | – |
| CCC(C)(CN(C)C)OC(=O)c1ccccc1 (configuration not stated) | inactive | – |
| Cc1cccc(N2CCN(C(=O)Cn3nc(Cc4ccncc4)c4ccccc4c3=O)CC2)c1C | inconclusive [inhibitor, partial curve] | – |
| C[N+]1(CC(=O)c2ccc(I)cc2)CCCc2ccccc21 (configuration not stated) | active: 7.94 µM | – |
| CS(=O)(=O)Nc1ccc(C2=NN(C(=O)c3ccco3)C(c3ccccc3F)C2)cc1 (configuration not stated) | inconclusive [inhibitor, partial curve] | – |
| CN1CCN(C(=O)NC2CCCN2S(=O)(=O)c2ccc(Cl)cc2)CC1 (configuration not stated) | inconclusive [inhibitor, single point] | – |
| S=C1SC2(CCCCCC2)NC2=C1CCCCC2 | inconclusive [inhibitor, single point] | – |
| O=C(CC1Sc2ccccc2NC1=O)NNc1cccc(Cl)c1Cl (configuration not stated) | inconclusive [inhibitor, single point] | – |
| O=C1CC(SC(=Nc2ccccc2)Nc2ccccc2)C(=O)N1c1ccc(Cl)c(Cl)c1 (configuration not stated) | inconclusive [inhibitor, single point] | – |
